Measured values as given in the supplement of paper PMC12217912.
The list shows a part of the results. Sequences were assembled here from the parent chain. Values near 0.05 are background.

B1: TEV protease; numbered along this chain (parent)
chain: MGESLFKGPRDYNPISSSICHLTNESDGHTTSLYGIGFGPFIITNKHLFRRNNGTLVVQSLHGVFKVKDTTTLQQHLVDGRDMIIIRMPKDFPPFPQKLKFREPQREERICLVTTNFQTKSMSSMVSDTSCTFPSGDGIFWKHWIQTKDGQCGSPLVSTRDGFIVGIHSASNFTNTNNYFTSVPKNFMELLTNQEAQQWVSGWRLNADSVLWGGHKVFMVKPEEPFQPVKEATQL

Variants of: B1
Assay: raw area under fraction-flipped curve 0-4 h after induction (AUC4h, not background-subtracted), DNA-recorder readout of cleavage of the substrate (dimensionless); higher = more cleavage of the substrate by the protease variant
Details: temperature: 34 °C; time window: 0-4 h after rhamnose induction
Procedure: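 In vivo DNA recorder in E. coli TOP10(DE3) ΔrhaA at 34 °C. Each TEVp single-site mutant (parent TEVp 0) is paired with a single-site variant of the 7-mer TEVs (canonical ENLYFQ|S). The substrate sits between flexible linkers in a Bxb1-sfGFP-TEVs-SsrA fusion, so cleavage stabilises Bxb1 and speeds flipping of a recombination array, read by NGS. The value is the raw area under the fraction-flipped curve over 0-4 h after rhamnose induction (AUC4h), with ≥20 reads per time point. It is not background-subtracted; inactive controls average about 0.047.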
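Note: Bxb1 expression induced with 0.2% (w/v) L-rhamnose at OD600 near 0.5, cultures sampled hourly, flipped fraction per protease–substrate barcode pair counted by paired-end Illumina sequencing.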

| Variant | area with substrate ENLYAQS | area with substrate ENLYDQS | area with substrate ENLYEQS | area with substrate ENLYGQS | area with substrate ENLYHQS | area with substrate ENLYIQS | area with substrate ENLYKQS | area with substrate ENLYNQS | area with substrate ENLYRQS | area with substrate ENLYSQS | area with substrate ENLYWQS | area with substrate ENLYYQS | area with substrate ENLYCQS | area with substrate ENLYLQS | area with substrate ENLYPQS | area with substrate ENLYTQS | area with substrate ENLYMQS | area with substrate ENLYQQS | area with substrate ENLYVQS |
| --- | --- | --- | --- | --- | --- | --- | --- | --- | --- | --- | --- | --- | --- | --- | --- | --- | --- | --- | --- |
| D161I | 0.05 | 0.0635 | 0.0571 | 0.062 | 0.0465 | 0.0612 | 0.0563 | 0.0898 | 0.0478 | 0.0594 | 0.0451 | 0.0508 |  |  |  |  |  |  |  |
| D208P | 0.0628 |  | 0.0627 | 0.0726 |  | 0.0975 |  | 0.061 | 0.0685 |  | 0.0599 | 0.0692 | 0.0737 | 0.0662 | 0.0657 | 0.0672 |  |  |  |
| R204S | 0.0966 | 0.0612 | 0.0689 | 0.0599 | 0.0607 | 0.113 | 0.0619 | 0.0715 | 0.0691 | 0.091 | 0.0847 | 0.0768 | 0.115 | 0.118 | 0.0719 | 0.0805 | 0.107 | 0.0757 | 0.0746 |
| S158F | 0.0497 | 0.0536 | 0.0568 |  |  |  | 0.0613 | 0.0517 |  |  | 0.0584 |  |  |  |  |  | 0.052 |  | 0.0048 |
| N177D | 0.0796 | 0.0433 | 0.0732 | 0.0646 | 0.0531 | 0.0856 |  | 0.071 | 0.0625 |  | 0.0487 | 0.0679 |  |  | 0.0712 |  | 0.0795 |  | 0.113 |
| Q198H | 0.0716 |  | 0.072 |  | 0.0674 |  |  | 0.068 | 0.0598 | 0.0602 |  | 0.0689 |  |  |  |  |  |  | 0.101 |
| Q198M | 0.069 |  | 0.0743 | 0.0539 | 0.0516 | 0.1 | 0.0573 |  | 0.0483 | 0.0748 | 0.0809 | 0.0592 |  |  | 0.0629 |  |  | 0.0922 | 0.108 |
| M188A | 0.0703 | 0.0636 | 0.124 |  | 0.0603 | 0.152 | 0.0497 | 0.0557 | 0.0524 | 0.0839 | 0.0881 |  |  | 0.0977 | 0.0573 |  |  | 0.0405 | 0.135 |
| Q227C | 0.0553 |  | 0.0596 | 0.0659 | 0.0528 | 0.126 | 0.0167 | 0.0741 | 0.0569 | 0.0654 | 0.0923 | 0.0749 | 0.116 |  |  | 0.0697 | 0.0907 |  |  |
| Y179F | 0.0702 |  | 0.0566 |  | 0.0712 |  |  | 0.0585 | 0.0637 | 0.0724 |  | 0.0477 |  |  | 0.066 |  |  | 0.0642 |  |
| Y179C | 0.0457 |  | 0.0554 | 0.0636 | 0.0617 | 0.0451 | 0.048 |  | 0.0524 | 0.0487 | 0.0599 |  | 0.048 |  | 0.0568 |  |  | 0.0563 | 0.0533 |
| V217Y | 0.0637 | 0.0649 | 0.0642 | 0.0646 | 0.0729 | 0.0293 |  | 0.0637 | 0.067 | 0.065 |  | 0.0561 |  | 0.0615 |  | 0.0577 | 0.0403 | 0.0601 |  |
| V217K | 0.0632 | 0.068 | 0.056 |  | 0.0613 |  |  |  |  | 0.0438 | 0.0434 | 0.0255 | 0.0826 |  | 0.0617 | 0.0579 | 0.0473 | 0.0621 |  |
| V217T | 0.0791 | 0.0443 | 0.0617 | 0.0657 | 0.0704 | 0.0703 | 0.0541 | 0.0597 | 0.0825 | 0.0501 | 0.0684 | 0.0539 |  |  | 0.0618 |  | 0.0652 |  |  |
| T147A | 0.0748 | 0.0695 |  | 0.0617 | 0.0657 |  | 0.0589 | 0.0574 | 0.0619 | 0.0715 | 0.0671 | 0.0705 | 0.078 | 0.0604 | 0.044 |  | 0.0682 |  | 0.0696 |
| T147H | 0.08 | 0.0711 | 0.0664 | 0.0421 | 0.0554 | 0.0642 | 0.0577 | 0.0544 | 0.0565 |  | 0.0666 | 0.0591 | 0.0755 |  | 0.0552 | 0.0694 | 0.0432 | 0.0626 | 0.0792 |
| N186D | 0.059 | 0.0633 | 0.0578 | 0.0659 | 0.0918 |  | 0.0589 | 0.0679 | 0.066 |  | 0.0942 |  |  | 0.0839 |  | 0.0077 | 0.0768 | 0.0723 | 0.0803 |
| N186G | 0.0907 | 0.0653 |  |  |  |  |  |  |  |  | 0.0959 |  |  |  | 0.0749 |  |  |  |  |
| E189F | 0.0763 | 0.0717 | 0.0874 | 0.0669 |  | 0.129 |  | 0.0506 | 0.0514 |  | 0.0689 |  |  |  | 0.0679 | 0.0439 |  | 0.053 | 0.099 |
| V157P | 0.0512 | 0.0449 | 0.0535 |  | 0.0539 | 0.0573 | 0.0409 | 0.0539 | 0.0543 | 0.0636 | 0.0562 | 0.0573 |  |  | 0.0456 | 0.0543 | 0.0453 | 0.0544 | 0.053 |
| V157Q | 0.0763 |  | 0.0661 | 0.0487 | 0.0565 | 0.1 | 0.0754 | 0.0685 | 0.0686 | 0.053 |  | 0.0816 | 0.0641 | 0.0709 | 0.0285 |  | 0.0601 | 0.0596 | 0.0725 |
| P228L | 0.078 |  | 0.0701 | 0.04 | 0.0556 |  |  |  |  |  |  |  | 0.108 | 0.057 |  | 0.112 |  | 0.0604 |  |
| P228K | 0.0808 | 0.0755 | 0.098 | 0.0519 |  | 0.126 |  | 0.0738 | 0.0576 |  | 0.0535 |  |  |  | 0.0657 |  |  | 0.0628 |  |
| F180M | 0.0598 | 0.059 | 0.0732 |  |  | 0.113 | 0.0425 |  | 0.0576 | 0.078 | 0.0794 |  |  | 0.0836 |  | 0.0987 | 0.108 |  | 0.101 |
| F180K | 0.0506 | 0.0554 | 0.053 | 0.0564 | 0.0492 | 0.0515 | 0.057 |  | 0.0453 | 0.0428 |  |  | 0.0555 |  |  |  | 0.0264 | 0.0651 | 0.0531 |
| N193L | 0.111 | 0.0503 | 0.0655 | 0.0767 | 0.0643 | 0.138 |  | 0.0442 | 0.0545 |  |  |  | 0.0722 | 0.0522 | 0.0737 | 0.0453 | 0.081 | 0.0442 | 0.105 |
| K230Q | 0.0782 | 0.0611 |  | 0.0793 | 0.063 | 0.13 | 0.0589 | 0.076 | 0.0591 | 0.117 | 0.0883 | 0.0455 | 0.0817 |  | 0.0708 | 0.0682 | 0.0789 | 0.0556 | 0.0966 |
